{"source": "paper PMC4336329", "about": "(PLoS ONE, 2015)", "note": "About 2,200 (0.71%) of roughly 310,000 compounds showed an effect of 50% or more. Effects have a minus sign here. This is one part of the list."}
{"target": "human ether-à-go-go-related gene (hERG) potassium channel (human, UniProt Q12809)", "sequence (Q12809 whole entry, looked up)": "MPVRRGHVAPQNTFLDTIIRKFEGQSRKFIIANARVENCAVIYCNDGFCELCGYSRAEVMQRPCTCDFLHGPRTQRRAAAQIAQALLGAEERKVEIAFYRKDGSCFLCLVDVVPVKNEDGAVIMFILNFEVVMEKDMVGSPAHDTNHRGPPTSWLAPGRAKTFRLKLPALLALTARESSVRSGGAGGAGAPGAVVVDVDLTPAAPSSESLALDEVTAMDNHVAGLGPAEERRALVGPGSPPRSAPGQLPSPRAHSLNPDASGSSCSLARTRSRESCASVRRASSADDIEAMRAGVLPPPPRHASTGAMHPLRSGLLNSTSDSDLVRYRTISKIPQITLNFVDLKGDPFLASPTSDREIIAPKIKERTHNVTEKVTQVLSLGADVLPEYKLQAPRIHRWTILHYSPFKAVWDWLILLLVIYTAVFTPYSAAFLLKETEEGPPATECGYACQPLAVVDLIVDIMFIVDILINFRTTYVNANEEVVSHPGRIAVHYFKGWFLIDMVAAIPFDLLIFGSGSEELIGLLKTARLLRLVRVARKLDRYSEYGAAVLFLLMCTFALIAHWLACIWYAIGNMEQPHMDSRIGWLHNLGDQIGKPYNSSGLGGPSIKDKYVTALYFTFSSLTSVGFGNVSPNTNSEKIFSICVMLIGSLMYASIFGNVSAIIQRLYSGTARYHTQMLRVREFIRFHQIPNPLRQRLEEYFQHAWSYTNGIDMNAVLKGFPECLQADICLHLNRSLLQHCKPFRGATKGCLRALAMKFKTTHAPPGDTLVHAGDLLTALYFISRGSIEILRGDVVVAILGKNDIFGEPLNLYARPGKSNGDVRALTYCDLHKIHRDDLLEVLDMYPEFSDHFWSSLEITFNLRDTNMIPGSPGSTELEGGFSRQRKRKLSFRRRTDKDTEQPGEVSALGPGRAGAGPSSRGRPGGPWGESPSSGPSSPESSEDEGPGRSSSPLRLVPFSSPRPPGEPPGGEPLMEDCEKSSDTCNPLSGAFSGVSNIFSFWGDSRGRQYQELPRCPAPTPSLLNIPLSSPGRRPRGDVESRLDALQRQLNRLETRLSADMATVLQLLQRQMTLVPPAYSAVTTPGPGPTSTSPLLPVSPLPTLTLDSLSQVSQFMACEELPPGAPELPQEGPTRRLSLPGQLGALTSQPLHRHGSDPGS", "assay": "primary screen, population patch clamp on CHO cells stably expressing hERG", "units": {"hERG current change (%, negative = inhibition) at 1uM": "%"}}
{"molecule": "CC/C(C)=C1\\SC(N2CCOCC2)=NC1=O", "hERG current change (%, negative = inhibition) at 1uM": 7.59}
{"molecule": "COc1ccc(S(=O)(=O)NC2CCCCC2)cc1-n1cnnn1", "hERG current change (%, negative = inhibition) at 1uM": 8.83}
{"molecule": "COc1ccc(C(=O)Nn2c(CCC(=O)O)ccc2-c2ccc(C)cc2)cc1OC", "hERG current change (%, negative = inhibition) at 1uM": 13.7}
{"molecule": "COc1ccc(-c2csc(NC(=O)C3CCN(c4ncnc5sc(C)c(C)c45)CC3)n2)cc1OC", "hERG current change (%, negative = inhibition) at 1uM": 16}
{"molecule": "CCCN(CCC)CCCOC(=O)c1ccc(Cl)cc1Cl.Cl", "hERG current change (%, negative = inhibition) at 1uM": -56.8}
{"molecule": "O=C(Nc1ccccc1)c1ccc(NCC2CCCO2)c([N+](=O)[O-])c1", "note": "(stereo not shown)", "hERG current change (%, negative = inhibition) at 1uM": -1.62}
{"molecule": "COc1cccc2sc(N3CCN(C(=O)c4cccs4)CC3)nc12", "hERG current change (%, negative = inhibition) at 1uM": 1.6}
{"molecule": "COc1ccc(Cl)cc1NC(=S)NNC(=O)c1cccs1", "hERG current change (%, negative = inhibition) at 1uM": 16.4}
{"molecule": "CC1CCN(C(=O)Cn2cc(C(=O)c3ccco3)c3ccccc32)CC1", "hERG current change (%, negative = inhibition) at 1uM": 14.3}
{"molecule": "CCOc1cc(NC(=S)NCC2CCCO2)c(OCC)cc1NC(=O)c1ccc(C)cc1", "note": "(stereo not shown)", "hERG current change (%, negative = inhibition) at 1uM": 0.412}
{"molecule": "COc1ccc(OC)c(COC(=O)c2cc([N+](=O)[O-])ccc2N2CCOCC2)c1", "hERG current change (%, negative = inhibition) at 1uM": -0.0939}
{"molecule": "Cc1cccc(-n2c(SCC(N)=O)nnc2-c2ccccn2)c1C", "hERG current change (%, negative = inhibition) at 1uM": 8.65}
{"molecule": "CCCc1nc2n[nH]c(N)c2c2c1CCC2", "hERG current change (%, negative = inhibition) at 1uM": -5.76}
{"molecule": "Clc1ccc(SCCCN2CCCCC2)cc1.O=C(O)C(=O)O", "hERG current change (%, negative = inhibition) at 1uM": -24.5}
{"molecule": "Cc1nn(C)cc1CN1CCCC(C(=O)c2ccc(-c3ccccc3)c(F)c2)C1", "note": "(stereo not shown)", "hERG current change (%, negative = inhibition) at 1uM": 11.2}
{"molecule": "CCOc1ccc(N2CSC(=S)N(c3ccc(OCC)cc3)C2)cc1", "hERG current change (%, negative = inhibition) at 1uM": 11.6}
{"molecule": "CC#CCCc1nc2ccccc2c(=O)n1N", "hERG current change (%, negative = inhibition) at 1uM": 13.8}
{"molecule": "NC(=O)c1ccccc1N/C=C/C(=O)c1ccc(Cl)cc1", "hERG current change (%, negative = inhibition) at 1uM": 10.3}
{"molecule": "CC1CC(C)CN(CC(=O)NNC(=O)COc2ccc(Cl)cc2)C1", "note": "(stereo not shown)", "hERG current change (%, negative = inhibition) at 1uM": -3.97}
{"molecule": "CN1CCNC(=O)C1CC(=O)NCCc1ccccc1F", "note": "(stereo not shown)", "hERG current change (%, negative = inhibition) at 1uM": 12.7}
{"molecule": "CC(C(=O)Nc1ccccc1C(=O)N1CCCC1)n1nnc2ccccc21", "note": "(stereo not shown)", "hERG current change (%, negative = inhibition) at 1uM": -0.136}
{"molecule": "CCOc1ccc(NC(=O)CC2C(=O)N(C)C(=S)N2CCCc2ccccc2)cc1", "note": "(stereo not shown)", "hERG current change (%, negative = inhibition) at 1uM": 10.2}
{"molecule": "CNc1cccccc1=S", "hERG current change (%, negative = inhibition) at 1uM": 8.22}
{"molecule": "CCc1nc2cc([N+](=O)[O-])c([N+](=O)[O-])cc2[nH]1", "hERG current change (%, negative = inhibition) at 1uM": 10.7}
{"molecule": "O=C(CC1C(=O)NCCN1CC(c1ccccc1)c1ccccc1)NCC1CCOCC1", "note": "(stereo not shown)", "hERG current change (%, negative = inhibition) at 1uM": 11.5}
{"molecule": "COc1ccc(OCCC(=O)Nc2ccc(S(N)(=O)=O)cc2)cc1", "hERG current change (%, negative = inhibition) at 1uM": 12.8}
{"molecule": "Cc1ccc(NCc2ccccc2O)cc1C", "hERG current change (%, negative = inhibition) at 1uM": 10.2}
{"molecule": "CCOC(=O)N1CCN(C(=O)Cc2ccc(Cl)cc2)CC1", "hERG current change (%, negative = inhibition) at 1uM": 4.03}
{"molecule": "COC(=O)C(NC(=O)Nc1ccccc1OC)C(C)C", "note": "(stereo not shown)", "hERG current change (%, negative = inhibition) at 1uM": 17.9}
{"molecule": "N#CCC(=O)N/N=C/c1ccc(OCc2ccccc2)cc1", "hERG current change (%, negative = inhibition) at 1uM": 10.7}
{"molecule": "O=S(=O)(NCC1CCCO1)c1ccc(S(=O)(=O)N(Cc2ccc(F)cc2)Cc2ccccn2)cc1", "note": "(stereo not shown)", "hERG current change (%, negative = inhibition) at 1uM": 6.17}
{"molecule": "COc1ccc(CNC(=O)CN(Cc2ccccc2F)C(=O)c2csnn2)cc1", "hERG current change (%, negative = inhibition) at 1uM": -2.99}
{"molecule": "CC12CCC(=O)N1C(C(=O)NCCN1C(=O)S/C(=C\\c3ccc(OC(F)F)cc3)C1=O)CS2", "note": "(stereo not shown)", "hERG current change (%, negative = inhibition) at 1uM": 17}
{"molecule": "COC(=O)CN1C(=S)N(C)C(=O)C1CC(=O)Nc1ccccc1", "note": "(stereo not shown)", "hERG current change (%, negative = inhibition) at 1uM": 2.66}
{"molecule": "O=C1CCCN1c1ccc(S(=O)(=O)NCCc2ccc(Cl)cc2)cc1", "hERG current change (%, negative = inhibition) at 1uM": -4.53}
{"molecule": "Nc1ccncc1", "hERG current change (%, negative = inhibition) at 1uM": 6.11}
{"molecule": "Oc1ccc(C=Nc2ccccc2-c2nc3ccccc3[nH]2)c(O)c1", "hERG current change (%, negative = inhibition) at 1uM": 10.5}
{"molecule": "Cc1cc(C)nc(N/N=C/c2ccco2)n1", "hERG current change (%, negative = inhibition) at 1uM": 11.9}
{"molecule": "O=C(Nc1ccc(F)cc1)C1CCC(CNc2c(N3CCCCC3)c(=O)c2=O)CC1", "note": "(stereo not shown)", "hERG current change (%, negative = inhibition) at 1uM": 11}
{"molecule": "CCOCCSc1nc2c(c(=O)[nH]c(=O)n2C)n1CCCc1ccccc1", "hERG current change (%, negative = inhibition) at 1uM": -2.1}
{"molecule": "CCOc1cc(N2CCOCC2)c(OCC)cc1NC(=O)COC(=O)/C=C/c1ccc(OC(F)F)cc1", "hERG current change (%, negative = inhibition) at 1uM": 9.44}
{"molecule": "CCOC(=O)c1ccc(CN(Cc2ccc(C)cc2)S(=O)(=O)c2cccc([N+](=O)[O-])c2)cc1", "hERG current change (%, negative = inhibition) at 1uM": 10.6}
{"molecule": "Cc1cccc2c1NC(=O)C21N2CCCC2C(C(=O)c2ccc3ccccc3c2)C12C(=O)Nc1ccccc12", "note": "(stereo not shown)", "hERG current change (%, negative = inhibition) at 1uM": 8.96}
{"molecule": "Cc1ccc(NC(=O)C2CC(=O)N(c3ccc4c5c(cccc35)CC4)C2)cc1", "note": "(stereo not shown)", "hERG current change (%, negative = inhibition) at 1uM": 10.8}
{"molecule": "COc1cc([N+](=O)[O-])ccc1NC(=O)CC(C)C", "hERG current change (%, negative = inhibition) at 1uM": 1.18}
{"molecule": "Cc1ccccc1OCCn1cc(C=O)c2ccccc21", "hERG current change (%, negative = inhibition) at 1uM": 10.1}
{"molecule": "COc1ccc(C(NC(=O)CC(C)C)c2c(O)ccc3ccccc23)cc1", "note": "(stereo not shown)", "hERG current change (%, negative = inhibition) at 1uM": 2.37}
{"molecule": "CCOC(=O)c1oc2ccccc2c1COC(=O)CNC(=O)c1ccco1", "hERG current change (%, negative = inhibition) at 1uM": -8.78}
{"molecule": "NS(=O)(=O)c1ccc(NC(=O)CSc2ccccn2)cc1", "hERG current change (%, negative = inhibition) at 1uM": 19.4}
{"molecule": "O=C1NC(=O)/C(=C/c2ccc(-c3cc(C(=O)O)ccc3Cl)o2)S1", "hERG current change (%, negative = inhibition) at 1uM": 14.6}
{"molecule": "O=C(NCC1CCCO1)c1ccc(NC(=O)C2CCCCC2C(=O)O)cc1", "note": "(stereo not shown)", "hERG current change (%, negative = inhibition) at 1uM": 10}
{"molecule": "CSc1nc(O)c(C(c2ccc(OC(C)C)cc2)c2c(O)nc(SC)[nH]c2=O)c(=O)[nH]1", "hERG current change (%, negative = inhibition) at 1uM": 15}
{"molecule": "CCCn1c(-c2ccc(OC)cc2)nc2ccccc21", "hERG current change (%, negative = inhibition) at 1uM": 1.14}
{"molecule": "COc1ccccc1NC(=O)CN(Cc1ccco1)C(=O)c1cncc(Br)c1", "hERG current change (%, negative = inhibition) at 1uM": -10}
{"molecule": "CCCCSc1nc(N)c(NC(=O)c2ccco2)c(=O)[nH]1", "hERG current change (%, negative = inhibition) at 1uM": 16.2}
{"molecule": "COC(=O)/C(C#N)=C/c1c(N2CCN(c3cccc(Cl)c3)CC2)nc2c(C)cccn2c1=O", "hERG current change (%, negative = inhibition) at 1uM": 10.6}
{"molecule": "Cc1ccc(N2CC(C(=O)Nc3nnc(SCCC4OCCO4)s3)CC2=O)cc1C", "note": "(stereo not shown)", "hERG current change (%, negative = inhibition) at 1uM": 12.3}
{"molecule": "Cc1cn(C2OC(CC(=O)Oc3ccccc3)C(O)C2O)c(=O)[nH]c1=O", "note": "(stereo not shown)", "hERG current change (%, negative = inhibition) at 1uM": 13.2}
